Measured values reported in PMC13541613.
This is a selection; strong and weak results do not stand in their true shares. At the low end of the ranking the order means little.

Each sequence was assayed against ZNF721 DBD1 (UniProt Q8TF20-2) (assay: HT-SELEX). Conditions: 20 mM HEPES pH 7, 140 mM KCl, 5 mM NaCl, 1 mM K2HPO4, 2 mM MgSO4, 100 uM EGTA, ZnSO4, 0.1% Tween20; room temperature, 1 h; high values mean tight binding; double strand, one strand shown.
AAAAAGGCAT gave a binding signal (relative 10-mer count) of 0.00266. ACCCACCCCT was tested, and the binding signal (relative 10-mer count) was 0.00541. Sequence CCCACCGTCC has a binding signal (relative 10-mer count) of 0.00449. For CACTGTTTTC, the binding signal (relative 10-mer count) was 0.000505. AAACAGCAGC showed a binding signal (relative 10-mer count) of 0.000321. AAAACAGTAC showed a binding signal (relative 10-mer count) of 0.000367. Sequence CCCCTCGCCC has a binding signal (relative 10-mer count) of 0.00665. Work on AAACAGTGTA yielded a binding signal (relative 10-mer count) of 0.000413. Work on CAGGGTTTCC yielded a binding signal (relative 10-mer count) of 0.000183. AAACAGCATC showed a binding signal (relative 10-mer count) of 0.000505. Sequence CGAAAACAGC has a binding signal (relative 10-mer count) of 0.000275. AAACAGCAGT was tested, and the binding signal (relative 10-mer count) was 0.000138. Sequence AAACAAACAG has a binding signal (relative 10-mer count) of 0.000688. With ACAGGGTATC the binding signal (relative 10-mer count) was 0.000367. In the case of CCAAAAAACA, the binding signal (relative 10-mer count) is reported as 0.00174. AAAACAGTGC gave a binding signal (relative 10-mer count) of 0.00055. With CAGCATCTCC the binding signal (relative 10-mer count) was 0.000596. Work on CAGGGGTGGG yielded a binding signal (relative 10-mer count) of 0.00482. Work on AACAAAGCAG yielded a binding signal (relative 10-mer count) of 0.00055. With AAAACAGGAT the binding signal (relative 10-mer count) was 0.000505. For CAGGGTTGCC, the binding signal (relative 10-mer count) was 0.000459. ACAAAACAGC gave a binding signal (relative 10-mer count) of 0.000826. In the case of AAAACAGCCC, the binding signal (relative 10-mer count) is reported as 0.000275. In the case of AACAGCATGC, the binding signal (relative 10-mer count) is reported as 0.000596. Sequence CACCCCCAAC has a binding signal (relative 10-mer count) of 0.00514. CCCCTCCACC gave a binding signal (relative 10-mer count) of 0.0117. With AAAACAGGGG the binding signal (relative 10-mer count) was 0.000642. In the case of ACAAAGCAGT, the binding signal (relative 10-mer count) is reported as 0.000505. Work on ATAAAACAGC yielded a binding signal (relative 10-mer count) of 0.000413. Sequence AAAGCAGCCC has a binding signal (relative 10-mer count) of 0.00225. ACCCCCACAC showed a binding signal (relative 10-mer count) of 0.00312. Sequence AAAACAGCGG has a binding signal (relative 10-mer count) of 0.000275. CCCTCGCCCC was tested, and the binding signal (relative 10-mer count) was 0.00702. With CCCTCCCTCC the binding signal (relative 10-mer count) was 0.0107. Work on AAAAGAACAG yielded a binding signal (relative 10-mer count) of 0.00055. CCTCCCCACC was tested, and the binding signal (relative 10-mer count) was 0.0111. For CAGGGTATCC, the binding signal (relative 10-mer count) was 0.000505. AAAAACAGTC gave a binding signal (relative 10-mer count) of 0.000505.
